Test results reported in the supplement of paper PMC6531468.
The other results are listed elsewhere or left out. Values come from read counts of a selection and are noisy. Scores sum up all selected molecules that hold the word; the word was not tested alone.

Key:
Assay in all cases: 6-mer SELEX enrichment z-score vs GST control; IMP3 is the RNA-binding protein IGF2BP3; higher = more enriched by binding
IMP3 KH1-4 = conditions: construct: KH1-4 (164-579); SELEX round: R4
Experimental: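 SELEX-seq with GST-tagged IMP3 KH1-4 (Pro164-Lys579) and an N40 RNA pool, round 4. 6-mer z-score of sequence-tag enrichment normalised to the corresponding GST SELEX round; RNA k-mers written as DNA (T for U).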

IMP3 RRM1-2 = conditions: construct: RRM1-2 (1-163); SELEX round: R2
Experimental: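 SELEX-seq with GST-tagged IMP3 RRM1-2 (Met1-Asn163) and an N40 RNA pool, round 2. 6-mer enrichment z-score normalised to GST SELEX. RNA written as DNA (T = U).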

IMP3 full-length = IMP3 full-length (UniProt O00425); conditions: construct: FL IMP3 (1-579); SELEX round: R4
Experimental: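 SELEX-seq with GST-tagged full-length IMP3 and an N40 RNA pool, round 4. Each 6-mer is scored as an enrichment z-score of sequence tags containing it, normalised to the matching GST SELEX round. RNA written as DNA (T = U).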

IMP3 KH3-4 = conditions: construct: KH3-4 (377-579); SELEX round: R4
Experimental: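 SELEX-seq with GST-tagged IMP3 KH3-4 (Pro377-Lys579) and an N40 RNA pool, round 4. 6-mer z-score of sequence-tag enrichment normalised to the corresponding GST SELEX round; RNA k-mers written as DNA (T for U).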

IMP3 KH1-2 = conditions: construct: KH1-2 (164-376); SELEX round: R4
Experimental: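 SELEX-seq with GST-tagged IMP3 KH1-2 (Pro164-Phe376) and an N40 RNA pool, round 4 (stringent 300/600 mM KCl washes). 6-mer z-score of sequence-tag enrichment normalised to the corresponding GST SELEX round; RNA k-mers written as DNA (T for U).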

IMP3 KH1-2, sequence (chain, as listed by the source): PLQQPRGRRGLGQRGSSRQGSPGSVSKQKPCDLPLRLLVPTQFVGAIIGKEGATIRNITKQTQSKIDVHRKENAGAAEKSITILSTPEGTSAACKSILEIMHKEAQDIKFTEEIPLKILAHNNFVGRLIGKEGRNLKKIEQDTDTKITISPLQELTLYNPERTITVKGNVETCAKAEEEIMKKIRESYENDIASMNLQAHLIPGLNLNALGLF
IMP3 RRM1-2, sequence (chain, as listed by the source): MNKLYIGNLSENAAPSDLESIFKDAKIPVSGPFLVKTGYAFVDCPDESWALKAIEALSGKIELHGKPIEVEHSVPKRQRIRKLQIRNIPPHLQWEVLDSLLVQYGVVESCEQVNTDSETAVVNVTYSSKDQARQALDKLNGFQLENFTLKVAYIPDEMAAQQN
IMP3 KH1-4, sequence (chain, as listed by the source): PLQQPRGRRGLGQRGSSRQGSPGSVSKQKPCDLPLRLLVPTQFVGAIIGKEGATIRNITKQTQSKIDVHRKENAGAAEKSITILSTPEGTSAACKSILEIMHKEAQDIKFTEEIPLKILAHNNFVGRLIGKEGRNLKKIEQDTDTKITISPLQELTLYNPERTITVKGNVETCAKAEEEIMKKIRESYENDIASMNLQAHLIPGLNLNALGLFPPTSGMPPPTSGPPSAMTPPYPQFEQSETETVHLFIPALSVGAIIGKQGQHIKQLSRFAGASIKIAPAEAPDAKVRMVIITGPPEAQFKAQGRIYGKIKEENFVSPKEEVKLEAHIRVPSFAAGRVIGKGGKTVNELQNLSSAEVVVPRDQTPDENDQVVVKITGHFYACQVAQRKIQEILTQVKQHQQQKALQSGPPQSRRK
IMP3 KH3-4, sequence (chain, as listed by the source): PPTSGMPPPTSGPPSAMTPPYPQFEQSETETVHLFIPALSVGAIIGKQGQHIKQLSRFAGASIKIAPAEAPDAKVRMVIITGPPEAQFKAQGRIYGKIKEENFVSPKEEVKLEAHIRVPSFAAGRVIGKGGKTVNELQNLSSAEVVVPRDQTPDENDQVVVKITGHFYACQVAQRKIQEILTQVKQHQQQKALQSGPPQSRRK
UniProt O00425, sequence (O00425 whole entry): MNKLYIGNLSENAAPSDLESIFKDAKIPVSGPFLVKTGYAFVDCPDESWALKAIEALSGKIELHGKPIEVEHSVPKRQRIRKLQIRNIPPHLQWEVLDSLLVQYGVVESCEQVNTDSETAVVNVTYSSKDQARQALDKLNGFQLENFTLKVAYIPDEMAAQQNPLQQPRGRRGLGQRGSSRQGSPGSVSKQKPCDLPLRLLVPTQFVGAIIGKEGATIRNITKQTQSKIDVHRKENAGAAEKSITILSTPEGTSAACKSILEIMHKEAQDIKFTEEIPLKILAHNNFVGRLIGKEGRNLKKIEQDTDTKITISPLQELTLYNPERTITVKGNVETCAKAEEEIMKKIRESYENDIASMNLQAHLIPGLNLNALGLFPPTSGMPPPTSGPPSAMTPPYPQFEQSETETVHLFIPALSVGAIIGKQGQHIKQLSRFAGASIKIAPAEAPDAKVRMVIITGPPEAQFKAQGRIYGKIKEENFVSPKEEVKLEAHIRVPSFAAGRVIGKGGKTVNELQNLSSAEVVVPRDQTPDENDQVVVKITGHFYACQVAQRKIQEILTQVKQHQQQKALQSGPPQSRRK

Sequence	6-mer SELEX enrichment z-score (IMP3 KH1-4)	6-mer SELEX enrichment z-score (IMP3 RRM1-2)	6-mer SELEX enrichment z-score (IMP3 full-length)	6-mer SELEX enrichment z-score (IMP3 KH3-4)	6-mer SELEX enrichment z-score (IMP3 KH1-2)
GTCAGT	0.189	0.344	0.456	0.167	
GTCGGG	0.399	0.318	0.883	0.527	
AACGCG	-1.64	-0.689	-0.997	-1.37	
GCGCTT	-0.31	0.413	0.163	-0.158	
CAAGTA	-0.037	0.112	-0.053	0.041	
GTGCGG	0.452	0.153	0.843	0.535	
AATTTC	1	0.047	0.174	1.07	
AGACGC	-0.653	-0.505	-0.384	-0.626	
TAGTAT	0.235	0.146	-0.018	0.449	
GGGCCC	-0.884	-0.093	0.205	-0.816	
CTCCAT	0.62	0.478	0.373	0.096	
GCCCCG	-0.885	-0.73	-0.138	-1.29	
GGTTTC	-0.336	0.491	0.01	-0.07	
TTATAG	0.743	0.135	0.167	1.2	
GACAGA	0.378	-0.834	0.183	0.293	
AACATC	0.144	1.77	1.7	-0.582	
TCATAC	1.09	1.86	1.77	0.811	
ACGATG	-0.023	-0.881	-0.581	0.025	
CAGGAC	0.614	0.296	0.631	0.05	
CCTTTC	0.479	0.191	-0.069	-0.021	
ACGAGC	-4.92	-0.516	-1.23	-4.38	

Sequence	6-mer SELEX enrichment z-score (IMP3 KH1-4)	6-mer SELEX enrichment z-score (IMP3 RRM1-2)	6-mer SELEX enrichment z-score (IMP3 full-length)	6-mer SELEX enrichment z-score (IMP3 KH3-4)	6-mer SELEX enrichment z-score (IMP3 KH1-2)
GATGCA	0.567	-0.244	0.322	0.463	
CAGTAT	0.453	0.227	0.411	0.526	
TATAAT	1.66	0.028	0.301	2.53	
CTAGCG	-1.48	-0.028		-1.21	-1.34
CGTCAG	-0.514	0.389	0.375	-0.446	
AAGAAC	-0.132	-1.52	-1.26	0.479	
TTCGTA	-0.132	0.229		-0.017	-0.184
CGACTG	-0.904	-0.547			-0.771
TCAATA	1.06	0.921			1.23
GCGAGA	-0.752	-0.638			-0.669
GGCGAC	-0.27	0.02			-0.269
CTCGCA	-0.326	0.355		-0.438	-0.213
TTGCTT	0.298	0.459	0.022	0.39	
GAAGGG	0.586	-0.433			0.797
CTGCTT	0.32	0.193			0.411
ACCCTG	-1.52	-0.874		-1.88	-1.57
TACACT	1.29	0.703			1.47
GTCTGG	-0.085	0.413		0.073	0.049
CTTATT	1.07	0.316			0.925
ACTGTA	0.447	-0.403		0.412	0.404
GAACCG	-1.36	-1.57			-1.11

Sequence	6-mer SELEX enrichment z-score (IMP3 KH1-4)	6-mer SELEX enrichment z-score (IMP3 RRM1-2)	6-mer SELEX enrichment z-score (IMP3 full-length)	6-mer SELEX enrichment z-score (IMP3 KH3-4)	6-mer SELEX enrichment z-score (IMP3 KH1-2)
CCACCG	-0.595	-0.648			-0.358
TAGCAC	0.473	0.291		0.119	0.335
TATCAA	0.504	1.14			0.645
ATCATG	0.94	1.71		0.706	0.673
TAGCGT	-1.96	0.207		-1.54	-1.74
CTTCTG	0.22	0.254			0.313
ATTTGG	0.1	0.306	0.068	0.38	
GGAGCC	-0.524	-0.73			-0.404
CAGATC	0.275	0.716			0.162
CTTCCG	0.089	0.023			0.339
GGATAT	0.742	-0.01	0.117	1.05	
CTCCAA	-0.853	-0.292	-0.78	-1.14	
AACTAA	0.692	-0.909			0.679
AGGTCC	-0.043	-0.032	0.286	-0.255	
ATGCGT	-1.39	0.103	-0.732	-0.946	
TGATTA	1.08	-0.231	-0.139	1.56	
TGTGTT	0.169	0.434	-0.139	0.236	
TGGCGG	0.521	0.247		0.665	0.567
TCAGCG	-1.36	0.476			-1.24
ATCCGT	-0.073	-0.071		-0.315	0.072
